# Assay results taken from the supplement of paper PMC3334620.
# The full ranking holds about 33,000 sequences; the median of “E-score (-0.5 to 0.5)” is about -0.032, and the highest 2% start at about 0.36. This is one part of the list.
# Target: T1, Sko1 (UniProt Q02100)
# T1 sequence: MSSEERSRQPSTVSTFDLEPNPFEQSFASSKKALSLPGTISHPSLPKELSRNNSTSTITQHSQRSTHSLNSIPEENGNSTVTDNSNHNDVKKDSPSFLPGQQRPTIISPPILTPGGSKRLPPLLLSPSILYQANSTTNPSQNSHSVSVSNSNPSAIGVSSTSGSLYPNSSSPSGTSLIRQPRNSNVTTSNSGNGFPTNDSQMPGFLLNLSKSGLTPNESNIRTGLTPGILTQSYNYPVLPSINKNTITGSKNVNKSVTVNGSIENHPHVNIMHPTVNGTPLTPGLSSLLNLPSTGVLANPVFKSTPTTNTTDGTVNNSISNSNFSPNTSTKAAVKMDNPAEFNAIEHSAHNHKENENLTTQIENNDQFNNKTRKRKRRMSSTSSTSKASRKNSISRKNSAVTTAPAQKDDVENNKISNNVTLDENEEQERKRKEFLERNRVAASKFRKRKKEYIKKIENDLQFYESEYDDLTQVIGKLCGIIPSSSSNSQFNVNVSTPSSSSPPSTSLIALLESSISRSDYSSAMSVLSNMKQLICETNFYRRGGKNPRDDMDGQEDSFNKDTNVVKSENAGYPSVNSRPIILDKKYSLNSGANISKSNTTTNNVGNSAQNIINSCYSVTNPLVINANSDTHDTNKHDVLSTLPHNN
# Experiment: PBM E-score (8-mer binding enrichment) (E-score (-0.5 to 0.5)); higher = stronger / more preferred TF binding; most listed sequences are background and not binding sites
# Conditions: protein concentration: 200 nM; construct: GST-full length
# Procedure, shortened: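 Detection of bound protein used fluorescent anti-GST, with scans normalised by masliner. The proteins were GST-tagged yeast transcription factors applied at about 100-200 nM to universal all-10-mer Agilent arrays made double-stranded by primer extension. Each ungapped eight-base word, pooled with its reverse complement, was scored with an E-score from the Universal PBM Analysis Suite.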
row,Sequence,PBM E-score
1,AAGAAAGT,0.0785
2,CATCGTAA,0.317
3,ACTCTATA,0.0196
4,GGTCATCA,0.207
5,ACTCACGC,0.14
6,CCTGAGAC,-0.216
7,ACGATCGG,-0.0844
8,CGCCGTTC,-0.264
9,AGGGACCC,-0.354
10,CATATATA,0.25
11,GAGCTACA,-0.23
12,AGTAAAGC,0.195
13,TCCTTTCA,0.127
14,AACAGGAC,0.101
15,AACCGCCG,-0.0941
16,AGACAATG,0.08
17,ACCGTGGC,-0.252
18,ATGATGAC,0.327
19,AATCAAAG,-0.0996
20,CAGGGCTA,-0.144
21,CTCAGCAA,0.0587
22,AACACATG,0.115
23,AATTAAAG,0.0213
24,AGTCTATA,0.0604
25,GACGGCGA,-0.134

row,Sequence,PBM E-score
1,ACATTCCG,-0.138
2,AACGAAGT,0.0161
3,AAGCGAAA,-0.0358
4,AGAACGCG,-0.0454
5,CCAGGAAA,-0.00466
6,CGCGCGAA,0.0432
7,ACCATCTG,-0.3
8,CCTTCCTA,-0.27
9,CCACTGTC,-0.185
10,AGTTAAAG,0.0571
11,TGCTAGCA,0.123
12,GCACACTA,-0.00368
13,CGCTTCTA,-0.0149
14,AAGTGCGA,-0.0462
15,GCGTTTAA,0.146
16,CCGCCTTC,-0.409
17,CCCGAAGG,-0.192
18,AACTGGAA,-0.104
19,CGCCTTCA,-0.267
20,CCGCTTGC,-0.232
21,CATCAATC,0.116
22,GAGGAACC,-0.252
23,AGTGTGTG,-0.0482
24,ACGCACCT,0.126
25,AATATGGA,0.0432

row,Sequence,PBM E-score
1,ATACAGCC,-0.0833
2,CACCCCGC,-0.213
3,CATGGTTC,0.153
4,ATTGAGGC,-0.104
5,CTTGTGAC,0.117
6,ATGGACCG,-0.202
7,CCATACCA,-0.132
8,CAGGTTCC,-0.304
9,AGCTCAGA,-0.107
10,ACTTGGCC,-0.116
11,GGTCTTAC,0.107
12,GCGGTGTA,-0.0935
13,CTAGAAAG,-0.12
14,AGATACCT,-0.131
15,CGACTTTA,0.00116
16,TGAATGAA,0.197
17,GGGCAATA,-0.14
18,ATATCAGC,-0.053
19,AACGTGTA,0.247
20,AAAGACGG,-0.111
21,CACTCAAA,0.0598
22,CGGGCAGA,-0.133
23,AGAAGACG,0.193
24,GAACAACA,-0.0512
25,CTTTCTAC,0.189

row,Sequence,PBM E-score
1,CAGTGCGG,-0.212
2,CTAAACTC,-0.0134
3,TCATTACA,0.342
4,ATTACATA,0.386
5,AGATTACT,0.201
6,CCACCTCG,-0.302
7,ACTGCCTA,0.0604
8,AAAAGTAA,0.159
9,AGGTGAAT,-0.00384
10,ACATCCAG,-0.0541
11,CACGACGG,0.169
12,CCGAAAGG,-0.229
13,CGATAGCC,-0.0218
14,CCTGTTCG,-0.0292
15,TGTATGAA,0.0696
16,GGGATTCA,-0.192
17,AACTTCAT,0.113
18,CTCGTATA,0.0394
19,CCAATGCA,-0.148
20,AGAGAAAC,0.0722
21,CTGGGGCA,-0.33
22,TAACGTCA,0.48
23,AGAACCCC,-0.334
24,GTAAACGA,0.25
25,GTGACTGA,0.114

row,Sequence,PBM E-score
1,AACCGGCC,-0.212
2,GCGAGAAA,-0.0845
3,AAGGCGCA,-0.0485
4,AGTGCTAT,-0.0679
5,CAATGAGG,-0.0905
6,CAATAGGC,-0.173
7,CTGTATGC,-0.137
8,GGGGGGAA,-0.365
9,GAAAGATC,-0.118
10,GAGGGGCA,-0.268
11,GGAAGGTA,-0.103
12,GAGTAACC,-0.0223
13,ATGACTAC,0.123
14,CTAAGCGA,-0.352
15,CCAGTAAG,-0.0973
16,GCTCCTAC,0.0151
17,GCGCAGCA,-0.339
18,AGCTAGGC,-0.223
19,ACGTCCCA,0.23
20,CATGTCGC,0.0417
21,GGTACGGA,-0.174
22,ACTGCGAA,0.0584
23,AGGGTAGA,-0.149
24,ACAAGATA,0.0391
25,CGCCAACG,-0.0267

row,Sequence,PBM E-score
1,AGCCCCCG,-0.325
2,GGACGGAA,-0.12
3,GGTTGCCA,-0.215
4,GCAGCGAC,-0.262
5,ACTGGCGC,-0.0635
6,CCCTTCTA,-0.105
7,CGCGGACG,0.036
8,GGCACAGA,-0.221
9,AGCCGCCT,-0.293
10,ACTCTGAT,0.101
11,ACGCTTTG,0.0823
12,GCTATCCC,-0.234
13,AGCGTAAG,0.0565
14,CAGCCTAG,-0.295
15,ATCACGAG,0.0133
16,AGGACCAG,-0.302
17,AAGCAAAT,0.116
18,ATCGTTGC,0.00042
19,ATTGAACG,0.109
20,CTGGTAAA,-0.0322
21,GGCCAAAA,-0.00857
22,AGATGCGG,-0.119
23,CCAACCTA,-0.131
24,CATAACAC,0.198
25,CACCATAG,-0.171

row,Sequence,PBM E-score
1,CATGCAAA,0.0985
2,CATCTCAG,-0.071
3,ACGACACC,0.114
4,CAGCTGCG,-0.0892
5,ACGCGGAA,0.0704
6,AACCACCG,-0.0286
7,CTATCGAA,0.0258
8,GTACTTCA,0.271
9,ACCGTAGA,0.047
10,AAGGGCGG,-0.209
11,CGTACACG,0.335
12,AGCACTCA,-0.0652
13,CATCATCA,0.361
14,GACATTTA,0.0915
15,CGTTGGAC,0.0837
16,AAAGAAGA,0.0252
17,ACGGTGGC,-0.0763
18,AACGCAGG,-0.184
19,CCGGTATC,-0.278
20,ACCCGGTG,-0.157
21,ACGATGAA,0.123
22,CAAATGGC,-0.0357
